# Test results: the supplement of paper PMC11417369
# ± gives the standard deviation of the averaged measurements. This is one part of the list.
# Tested on: PfAP2-EXP AP2 domain (GST-tagged)
# Test: gcPBM binding intensity (ln(normalized median fluorescence intensity)); higher = stronger DNA binding
# Procedure, shortened: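 An Agilent 4 × 180k array carrying primer-extended double-stranded 36-bp intergenic genomic probes and negative controls received GST-tagged P. falciparum DNA-binding domains expressed in E. coli, about 25 μg on average, for 1 h. The binding buffer contained 1× PBS, 1% milk, 0.2 mg/ml BSA, 0.5% salmon testes DNA and 0.03% Triton X-100. Binding intensity is the top Masliner-normalised natural-log median intensity across replicate spots of either probe orientation, read after Alexa488 anti-GST antibody staining and a 488 nm scan.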
row,Sequence,gcPBM binding intensity (ln)
1,TAAGAAATAAATAGTACACACATAGACACAGACACA [CACACA_site4934],8.91 ± 0.45
2,TTTAAATACAGACATACACACATACACCCACATATA [CACACA_site8078],8.9 ± 0.51
3,TGTTTTTATTTATTCTGTACTGAAGAGAGTTATATA [XGTACX_site8859],8.59 ± 0.38
4,GTATATGAGAAAAAAAGTACATGCACAAAATGTATA [XGTACX_site6441],9.21 ± 0.23
5,ATATAAATTTTTTATGAACACACAAATACAGACACT [CACACA_site8848],8.97 ± 0.53
6,AGATTAAAATAATATAAACACACATATACTTTTTTC [CACACA_site8085],8.23 ± 0.35
7,ATAATTAAAAAAAATTGTACATATAAATAGAAGATT [XGTACX_site230],8.87 ± 0.42
8,TAGGTATGCTCTCAATGTACATAAAATAATTTTACT [XGTACX_site6556],8.56 ± 0.33
9,AAAAAAAAAAGAATAGCACACACACCGATATAAATA [CACACA_site8111],8.88 ± 0.4
10,TTTATGTGTATTAAGTGTACACATATAGTGTATTTT [XGTACX_site999],8.42 ± 0.31
11,ATATATAAGGAAAAAAGTACTTATATTTTTTTTTTG [XGTACX_site1909],8.01 ± 0.33
12,AACAAATGTTAAATGTTTAAGGAGAAAATAAAGACA [CACACA_negctrl_site1163],8.77 ± 0.49
13,AAAACGAAACATCTGTGTATAAGTCTATATTATTAT [XGTACX_negctrl_site301],8.45 ± 0.51
14,GAAAACATAAAAATATGTACTTAAAATATATTTTGT [XGTACX_site868],8.38 ± 0.4
15,TGTCATGATACATACACACACATACCCATACCCATA [CACACA_site5211],8.81 ± 0.52
16,AAATAAAGCATGTGCTGTACAAACGAAATATTTAAG [XGTACX_site3146],9.09 ± 0.37
17,TTTTTTTTTTTTCATTGTACTCTTAAAAATTCAACT [XGTACX_site3154],8.55 ± 0.4
18,TAAAATGTACAGGACGCACACACATATATATATATA [CACACA_site3673],10.1 ± 0.22
19,TATTTTTTTTTTTTTTTACACACTATAGGGAAAAAA [CACACA_site8583],8.21 ± 0.34
20,ATTAAAATTTAAAATACACACACATATATATAATAT [CACACA_site8612],8.7 ± 0.42
21,AACAACAACTAATATGCACACATTTAAAAACAAAAT [CACACA_site2440],8.6 ± 0.54
22,TTATAATGAAATATATTCTTATTCTTTTTTTTTTTT [GTGCAC_negctrl_site384],8.01 ± 0.38

row,Sequence,gcPBM binding intensity (ln)
1,GCTTCTTAATATCATACACACATAGATATATTTATA [CACACA_site5676],8.82 ± 0.38
2,GGAGACTTTGTATTGGGTACGTATTTCAATGCATGT [XGTACX_site1596],8.73 ± 0.46
3,CTTCCTATATTTTACTGTACTTTTTTTTTTTTTTTT [XGTACX_site4016],8.93 ± 0.38
4,TTTTTTAACAAAAATAAAACATAACTGAATTAAAAG [GTGCAC_negctrl_site244],8.52 ± 0.36
5,CATACATACATACATACACACACATATATATATATA [CACACA_site8593],10.1 ± 0.22
6,AAACCTTTACATCGTTTGCACTATATTGATATGTGT [GTGCAC_site9686],8.86 ± 0.38
7,ACGAATTAAATTTGCTGTACCAAAAAGAAAACAATA [XGTACX_site5511],8.65 ± 0.39
8,ATAATATATTTATAATGTACAAACCATTTGTATTAA [XGTACX_site4370],8.3 ± 0.4
9,TGGTTTCAATAATTAATAAAATATATTATTGTGAAA [CACACA_negctrl_site442],7.95 ± 0.41
10,TCTAACATATAATATTCACACACATATATATATTAT [CACACA_site8236],8.63 ± 0.5
11,ATTATTATTATATTTTGTACATATGTAACAATATAT [XGTACX_site5780],8.57 ± 0.25
12,TGCATATTACTTTTTCACATAAAAATGATCCGATTA [GTGCAC_negctrl_site526],8.4 ± 0.42
13,ATATTATGAATTGTCACACATATATTTAAAAATGTA [CACACA_site4852],8.32 ± 0.38
14,TAAATATGTGTATGTAGTACATAGTGTTTTTTTTTT [XGTACX_site3748],8.13 ± 0.31
15,AAAATATAAAAATGAAGTACAAAAAAAAAAAAAAAA [XGTACX_site8132],8.41 ± 0.15
16,GTTATACACATCAACACACACATACAACGTGGTGTA [CACACA_site6677],8.43 ± 0.28
17,AAAAAATGACTTAATATGAGCATATATTATGTTGTT [CACACA_negctrl_site1609],8.23 ± 0.49
18,AAAAAAAATTAAATAAATAAATATACACATATATAT [GTGCAC_negctrl_site394],8.27 ± 0.24
19,CATTAAAATTGAGAGATGCACTTTTTAAGACCTTGT,8.42 ± 0.2
20,AAAACATTGTTTATGTGTACATAATTATATTTACAA [XGTACX_site6926],8.45 ± 0.39
21,TTTTTTTTTTTTTTTTTTTTACCCCTTTTTCAAAAA [CACACA_negctrl_site1524],8.15 ± 0.43
22,AACTAATTCATGTTATATTAGATAAAAAAAAAAAAA [TGCATGCA_negctrl_site340],8.38 ± 0.4

row,Sequence,gcPBM binding intensity (ln)
1,ATATTTTTTAATTTTACACACCATATAAAATAATTC [CACACA_site7339],8.42 ± 0.4
2,AAATATATTATATGTACACACAAAATTAAGGGATAT [CACACA_site1375],9.06 ± 0.28
3,ATCAATACTTTTTTGGGTACATAAATATATATATAT [XGTACX_site8436],9.99 ± 0.18
4,GTGTTTGAAAATAAAGCATGCAAATATATTTGAAAT [TGCATGCA_site386],9.37 ± 0.69
5,AAAATAATAAATAAATGTACATATATATATATATAT [XGTACX_site3078],10.2 ± 0.47
6,TTTTTTTTGTTCATTGTGCACATTGCTTGCATGGAA [GTGCAC_site9693],9.14 ± 0.29
7,ATAAGATTATACAATTGTACGTTGTTCAAGATAAGG [XGTACX_site191],8.64 ± 0.4
8,TCTTATTCAAACGTAAAACGAAGAAGAAAAAAAAAA [CACACA_negctrl_site149],8.49 ± 0.41
9,ATATACTATATTTTAACACACAAAAAAAAAAAATAT [CACACA_site1091],8.59 ± 0.49
10,AAATTATATATATTACGTACATAGAACTTTACAGAA [XGTACX_site6646],8.53 ± 0.3
11,ATGTTACACCGACACACACACATAAAAAAACAAAAA [CACACA_site5750],8.61 ± 0.64
12,ATAAATAAATAAATAAATAAATATACATATACATAT [CACACA_negctrl_site205],8.33 ± 0.37
13,AGCATTTTAAGTTATACACACATTTTGAATCTATAT [CACACA_site7599],8.6 ± 0.4
14,AAGAAATAAAAAGAATGTACACAATATGTATTATAA [XGTACX_site4733],8.68 ± 0.25
15,TGGACAATTGTTTATTGTACTTAAATTTTATGTTCT [XGTACX_site8974],8.19 ± 0.34
16,TTGAAAAATGAGCACACACACAAATACATACATATT [CACACA_site3231],8.6 ± 0.45
17,TATCCATATTTGTTCACACACACACCGATTTATATA [CACACA_site5888],8.99 ± 0.46
18,CAAAAAACAACAGATCGTACAAAATATTATATATAT [XGTACX_site2285],8.89 ± 0.24
19,TTTTAACAAAAAAAAAGAAAAGAAAAGAAAATAATA [XGTACX_negctrl_site530],8.41 ± 0.61
20,TTAACTCTGGAGAAAAGTACATAGTATCTGGTAACA [XGTACX_site4941],8.54 ± 0.42
21,TATATTTATATCCACTTCGTTTAACGCACAGATATA [CACACA_negctrl_site954],8.93 ± 0.23
22,TGAGATATAAAAATATGTACTTATGTATAAATATTT [XGTACX_site7746],8.24 ± 0.35

row,Sequence,gcPBM binding intensity (ln)
1,CCAAATTTATTTTGTAGTACTCCGTATAGATCAACA [XGTACX_site7945],8.48 ± 0.35
2,ATTATAAAAATATATTGTACACAAAAATGTTTATAT [XGTACX_site5066],8.21 ± 0.25
3,AAGTTTTTTTTTAACACACACATAATAAAATAAATA [CACACA_site446],8.46 ± 0.31
4,ACTATCATTCATAGGTGTACCTAAATATATATATAT [XGTACX_site1696],9.96 ± 0.18
5,GATAATTACGGACACACACACACACGCACAACTAAA [CACACA_site7254],8.96 ± 0.16
6,CGAATATATTCTAGACGTACTATATAATATATATAT [XGTACX_site4953],9.29 ± 0.18
7,TCTTTTTCTTCTTATGTGCACATCAATTATGCTTCT,9.33 ± 0.35
8,ATAATAAAAATATATACATGCATTATTATATATATA [TGCATGCA_site799],8.97 ± 0.16
9,CAACAATTTCGTCATACACACATTCAGAATATAGAT [CACACA_site7166],8.62 ± 0.52
10,TTATTTCGAAGAAAATGTACATATATAAATATATAC [XGTACX_site3308],8.35 ± 0.41
11,ATAATATTTTTTAATTGTACGTTCCATTTTTTTAAA [XGTACX_site1227],8.78 ± 0.42
12,TTTCTTTTAATAATTAAATATTTATTTATGATTATA [TGCATGCA_negctrl_site30],8.27 ± 0.53
13,TACATACATATATTATGTACATATTTTATTTTTATT [XGTACX_site1642],8.65 ± 0.31
14,AAGCATACATCAAGCACACACACACCCACAGAGACA [CACACA_site4362],8.68 ± 0.47
15,AAAAAAAATTCGTGTGTGCGCATATATAATATATAA,8.94 ± 0.33
16,ATAAATATATATATCACACATATATAATTATATATA [CACACA_site4787],8.46 ± 0.3
17,TATGTAGTTTTAAAGTGTACTTATATATATTAATTG [XGTACX_site378],8.42 ± 0.34
18,AATATAAATAAAAACACACACAATGGTACATATATA [CACACA_site3671],8.92 ± 0.37
19,ATTGCAAGTTACTTGTGTACTTATAAGATTAAAAGA [XGTACX_site7696],8.77 ± 0.45
20,TAATAATACCCAAGCACACACACACCCATATATATA [CACACA_site4831],8.85 ± 0.35
21,TTTAAATCGTTAAAAACACACAAAAAAAATCAATTA [CACACA_site2519],8.39 ± 0.42
22,TACTGTGATAGCACCACACACGCAAAAGTGGGTATA [CACACA_site4749],8.62 ± 0.4
